Measurements from PubChem BioAssay AID602310 (National Center for Advancing Translational Sciences (NCATS), 2012).
Hit rate of the full screen: of about 410,000 compounds, about 310 (0.076%) were called active. About 2% were inconclusive and are not listed. Calls come from the whole dose curve; as a rule, active = well fitted curve in the direction sought with a large enough effect; inconclusive = small, poorly fitted or top-dose-only effect; inactive = flat fitted curve, though single readings scatter. The list shows a part of the results, in another mix than the full data.

Target: DNA dC->dU-editing enzyme APOBEC-3G (Homo sapiens) (UniProt Q9HC16)
UniProt Q9HC16, sequence (Q9HC16 whole entry, looked up): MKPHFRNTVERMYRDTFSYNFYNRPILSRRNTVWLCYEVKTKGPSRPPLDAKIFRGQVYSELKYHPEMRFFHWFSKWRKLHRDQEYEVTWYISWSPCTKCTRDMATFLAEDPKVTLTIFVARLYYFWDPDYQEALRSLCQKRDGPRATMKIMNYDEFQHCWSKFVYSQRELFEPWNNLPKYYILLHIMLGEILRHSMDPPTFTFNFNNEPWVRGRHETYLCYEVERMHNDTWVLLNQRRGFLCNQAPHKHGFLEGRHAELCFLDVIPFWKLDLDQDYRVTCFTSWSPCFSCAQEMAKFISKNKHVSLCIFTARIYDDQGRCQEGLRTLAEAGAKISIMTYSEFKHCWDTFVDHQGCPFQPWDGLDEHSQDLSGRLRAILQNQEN
Experiment: qHTS for Inhibitors of Vif-A3G Interactions: qHTS; note: nearly all actives have a fitted effect of over 60% in size;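 for activity, negative = active: hits raise eYFP signal because A3G escapes Vif-driven loss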
Details: HeLa A3G-eYFP + Vif (tagged APOBEC3G with the HIV-1 protein that degrades it), YFP fluorescence, overnight; series mostly up to 46.1 µM; activity, negative = active: at the top concentration
From the text: The recent discovery and characterization of host restriction factors, which provide a potent defense to invading retroviruses, has provided new targets for antiviral drug development. APOBEC3G (A3G) and APOBEC3F (A3F) are potent cytidine deaminases that block HIV-1 replication; HIV-1 expresses the Vif protein, which counteracts A3G and A3F by binding to them and inducing their proteasomal degradation. The Vif-A3G and Vif-A3F interactions provide two potential targets for development of small molecules which can interfere with the ability of Vif to degrade A3G or A3F. […] To identify inhibitors that can interfere with Vif mediated degradation of A3G and A3F, we have developed Hela cell lines that stably express A3G or A3F tagged with eYFP at the C-terminal end (A3G-eYFP or A3F-eYFP, respectively) and Vif. In the absence of an inhibitor, Vif induces degradation of A3G-eYFP and A3F-eYFP, and the cells are not fluorescent. In the presence of an inhibitor, it is expected that Vif will be unable to degrade A3G-eYFP and/or A3F-eYFP, resulting in an increase in yellow fluorescence. In this assays Vif A3G was screened against the Molecular Library Small Molecule Repository (MLSMR). NIH Chemical Genomics Center [NCGC] NIH Molecular Libraries Probe Centers Network [MLPCN] MLPCN Grant: MH093245 Assay Submitter (PI): Vinay Pathak, National Cancer Institute
5 uL of 700 cells/well of A3G-YFP cells are dispensed into black, clear bottom plates. The plates are incubated overnight at 37 deg C. 23 nL of compounds are added by pintool. The plates are incubated overnight at 37 deg C and then read on the TTP Acumen (Ex 488/ Em 500-530).
% is set by controls: 0 for no effect and ±100 for the full control effect; potency is the fitted concentration of half-maximal effect.

| SMILES | activity, negative = active | Potency |
| --- | --- | --- |
| Cc1cccc(NC(=O)CSc2nc3ccccc3c3nc(CCc4c(C)n[nH]c4C)nn23)c1 | inactive: -18.7% |  |
| CCOC(=O)c1ccc(NC(=O)CSc2nc(-c3cccs3)cc(C(F)(F)F)c2C#N)cc1 | inactive: -6.5% |  |
| COc1cc(-c2noc(C)c2C#Cc2ccc(N)cc2)cc(OC)c1OC | inactive: -23.3% |  |
| CCN(CC)c1ccc(/C=C/c2ccccn2)cc1 |  | active: 3.16 µM |
| CCOC(=O)N1C(=O)[C@](c2ccc(Cl)cc2)(C(C)C)N1C(=O)OCC | inactive: -28.5% |  |
| O=C(CNC(=O)Cc1ccccc1)NCC(=O)OCC(=O)c1cccc2ccccc12 | inactive: -3.48% |  |
| COc1ccc(OC)c(NS(=O)(=O)c2ccc(-n3cccn3)cc2)c1 | inactive: -27.5% |  |
| N#C/C(=C/c1ccncc1)c1nc2ccccc2c(=O)[nH]1 | inactive: 0.354% |  |
| Cc1cccc(CS(=O)(=O)c2ncc(Cl)c(C(=O)Nc3nnc(C(C)C)s3)n2)c1 | inactive: -12.1% |  |
| O=C(/C=C\c1ccco1)Oc1cccc2cccnc12 | inactive: 0.0799% |  |
| COc1ccc(CN([C@H](CO)CC(C)C)S(=O)(=O)N(Cc2ccccc2)[C@H](CO)CC(C)C)cc1 | inactive: -13.8% |  |
| O=C(/C=C/c1ccc(-c2ccccc2)o1)c1ccccc1 | inactive: -23.7% |  |
| C=CCOC(=O)C1=C[C@H](c2ccccc2)[C@@H](CCCO)[C@H](OCC)O1 | inactive: -3.71% |  |
| O=C(Nc1ccc2c(c1)CCCN2C(=O)c1cccs1)c1c(F)cccc1F | inactive: -30.2% |  |
| Cc1ccc2nc(/C(C#N)=C/c3ccc(-c4cccc(Cl)c4)o3)[nH]c2c1 |  | active: 7.94 µM |
| COc1ccc(N=Cc2c(O)c3ccccc3n2C(C)=O)cc1 |  | active: 12.6 µM |
| COc1ccc(CNC(=O)c2nc(S(=O)(=O)Cc3ccccc3)ncc2Cl)cc1 | inactive: -19.7% |  |
| Cc1ccc(N(C)S(=O)(=O)c2ccc(-c3cnc(C4CC4)o3)cc2)cc1 | inactive: -34% |  |
| O=C(CSc1nc2c([nH]c3ccccc32)c(=O)n1-c1cccc(Cl)c1)N1CCOCC1 | inactive: -0.261% |  |
| COc1ccccc1Nc1nn2c(=O)c3ccc(C(=O)N4CCCCC4)cc3nc2s1 | inactive: 0.963% |  |
| Cc1[nH]c2ccccc2c1C(=O)/C=C/c1ccccc1Cl | inactive: -25.4% |  |
| C[C@@H]1CC=C[C@H]2[C@H]1C(=O)N(Cc1ccccc1)[C@H]2c1ccoc1 | inactive: -16% |  |
| COc1cc(-c2cc(O)c(-c3ccc4ccccc4n3)c(=O)[nH]2)cc(OC)c1OC |  | active: 10 µM |
| CC1=CC(C)(C)Nc2ccc(OC(=O)c3ccco3)cc21 |  | active: 11.2 µM |
| CN(C)c1ccc(C=Cc2ccnc3ccccc23)cc1N | inactive: -12.9% |  |
| NN=C1c2ccccc2C(=O)C1C(=O)C(c1ccccc1)c1ccccc1 (configuration not stated) |  | active: 11.2 µM |
| COC(C/C=C/C(=O)[C@@H](C)OCc1ccccc1)OC | inactive: -0.341% |  |
